Laboratory results reported in US20230117205A1, “B7-H4 ANTIBODY-DRUG CONJUGATES FOR THE TREATMENT OF CANCER” (SEAGEN INC., priority 2021, published 2023).

Tests used:
[1] = system: SKBR3, MX-1, and 293T-B7-H4; assay: NK cell-mediated ADCC; type: cell-based, human; settings: NK effector cells, 4 hours
Description: Antibodies directed to cell surface antigens can elicit direct killing of antibody-coated cells, including induction of ADCC.
Human PBMCs were thawed into pre-warmed R10+ Media (RPMI 1640 (Gibco #11875-093) with 10% HI-FBS (Gibco #16140-071), 1× sodium pyruvate (Gibco #11360-070), and 1× GlutaMax (Gibco #35050-061)) and then an EasySep NK isolation kit (StemCell #17955) was used to purify NK cells. Target tumor cells were lifted off using TrypLE Express (Gibco #12604-021) and then plated into a U-bottom plate (Falcon #353077) at 40,000 cells/well (50 μL/well) for MX-1 and 293T-B7-H4 (HEK 293T cells engineered to express human B7-H4) and 20,000 cells/well (50 μL/well) for SKBR3 cell line. […] (NOTE: actual starting concentration was 6000 ng/mL to account for the inherent 3× dilution of the assay.) Then 200,000 cells/well (50 μL/well) of isolated NK cells were plated into the U-bottom plate (effector: tumor ratios were as follows: NK:SKBR3 cells 10:1; NK:MX1 cells 5:1, NK:293T-B7-H4 cells 5:1). Appropriate controls included: positive control mAb and ADC and negative non-binding control mAb and ADC, NK cells only control, target cells only control, target cells maximum lysis control, and media only control. […] A CytoTox 96 Non-Radioactive Cytotoxicity Assay kit (Promega #G1780) was used to develop the signal, which was read using 490 nm wavelength on a SpectraMax 190 instrument.

[2] = system: mB7-H4-expressing Renca tumors; assay: RNAseq of treated mB7-H4-expressing Renca tumors; type: in vivo, Balb/c mice; settings: single 3 mg/kg dose; 6-7 days
Description: For RNAseq, RNA was extracted from tumors and library preparation for […] sequencing was performed using PolyA selection. RNA was sequenced using the Illumina HiSeq platform 2×150 bp configuration. RNA extraction, library preparation, and sequencing were performed by GENEWIZ. Adaptors were trimmed using cutadapt version 1.16, reads were aligned to a composite (GRCh38(h38)/GRCm38(mm10)) genome using STAR version 2.5.2. Transcripts and genes were quantitated via RSEM version 1.2.31. Quantitative and statistical differences were determined between groups of samples using DESeq2 version 1.28.1. GO term and gene set enrichment analysis was performed with clusterProfiler version 3.16.1, msigdbr version 7.1.1, AnnotationDbi version 1.50.3, org.Mm.eg.db version 3.11.4, and org.Hs.eg.db version 3.11.4. […] Only GO terms with a p-value and q-value of 0.05 or less were retained. Figures were replotted using GraphPad Prism. The raw fastq files as well as the mapped BAM files are stored on the Seagen linux storage location: /fc1/jobs/research/RNASeq/. One vehicle control tumor was excluded from analysis due to degradation.
Tumors were harvested 6-7 days after treatment, cut in half, and processed for RNA-seq or IHC.

[3] = system: WIL2S and RAJI cells transduced to express human B7-H4; assay: CDC, Sytox Green, 10% human serum; type: cell-based
Description: Antibodies have the ability to recruit complement proteins triggering complement-dependent cytotoxicity (CDC).
Using complement media (RPMI containing 10% human serum (Complement Technology, Inc. #NHS)), test antibodies and controls were titrated with a 3-fold dilution ranging from 50-0.02 μg/mL and 100 μL/well of the titrations were plated over the target cells. To measure total cell death, 2% Triton X (EMD Millipore Corp. #648463-50ML) was used as a positive control. Test plate was incubated for 2 hours at 37° C. in a humidity-controlled incubator and then Sytox Green fluorescence was read on an Envision plate reader.

[4] = system: MDA-MB-468 xenograft model; assay: MDA-MB-468 xenograft dose range, Study MDAMB468-9; type: in vivo, NSG mice; settings: 3 mg/kg, three weekly doses
Description: Tumor volume was measured twice weekly until study day 85.
Female NSG mice were implanted with 1×10^6MDA-MB-468 cells in 25% Matrigel H C (Corning #354248) subcutaneously. Once tumor volumes reached 100 mm^3, mice were randomized into treatment groups of 5 mice each and dosed with 0.3, 1, or 3 mg/kg every seven days for three total doses (q7dx3). Twenty-four hours prior to receiving each ADC dose, each animal was treated with 10 mg/kg hIVIG (Grifolds). Tumor volumes were measured twice per week, animals were euthanized when tumor volume reached 700-1000 mm^3. Stock concentrations of ADC were diluted to desired concentration (with 0.01% Tween20 in PBS) and injected i.p. into each treatment group.

B1: B7H41001 mAb (antibody)
heavy: QLQLQESGPGLVKPSETLSLTCTVSGGSIKSGSYYWGWIRQPPGKGLEWIGNIYYSGSTYYNPSLRSRVTISVDTSKNQFSLKLSSVTAADTAVYYCAREGSYPNQFDPWGQGTLVTVSS[human IgG1 constant region not listed]
light: EIVMTQSPATLSVSPGERATLSCRASQSVSSNLAWYQQKPGQAPRLLIYGASTRATGIPARFSGSGSGTEFTLTISSLQSEDFAVYYCQQYHSFPFTFGGGTKVEIKRTVAAPSVFIFPPSDEQLKSGTASVVCLLNNFYPREAKVQWKVDNALQSGNSQESVTEQDSKDSTYSLSSTLTLSKADYEKHKVYACEVTHQGLSSPVTKSFNRGEC
modifications: non-natural residues; cyclised or stapled
ADCC response [1]: comparable ADCC responses | Vtcn1 (encodes B7-H4) transcripts [2]: not | lysis (CDC) [3]: did not induce lysis | anti-tumor activity (tumor volume) [4]: minimal anti-tumor activity
